{
  "source": "PubChem BioAssay AID1346428",
  "about": "(National Center for Advancing Translational Sciences (NCATS), 2018)",
  "note": "Out of some 48,000 compounds screened, about 1,200 (2.5%) were called active. About 2% were inconclusive and are not listed.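 How the source made its calls: active means activation of at least 60% and not above a set upper limit (about 1 call in 100 departs from these limits); inconclusive means activation of 40% to 60%, or above that upper limit; inactive means activation under 40%.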 Some of the results follow.",
  "data": [
    {"biological_target": "Probable G-protein coupled receptor 32 (Homo sapiens) (UniProt O75388)", "sequence (O75388 whole entry, looked up, the tested form may be a part)": "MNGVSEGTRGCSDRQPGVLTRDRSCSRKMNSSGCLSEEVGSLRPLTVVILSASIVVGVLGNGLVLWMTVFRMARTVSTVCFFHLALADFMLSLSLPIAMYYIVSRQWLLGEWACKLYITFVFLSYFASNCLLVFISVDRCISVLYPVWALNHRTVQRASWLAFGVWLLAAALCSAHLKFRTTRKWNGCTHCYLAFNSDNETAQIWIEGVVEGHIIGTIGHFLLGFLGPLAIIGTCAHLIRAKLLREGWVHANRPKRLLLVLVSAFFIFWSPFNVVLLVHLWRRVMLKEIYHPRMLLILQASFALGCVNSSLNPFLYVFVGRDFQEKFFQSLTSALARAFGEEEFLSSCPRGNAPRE", "test": "qHTS for Agonists of Human Resolvin D1 Receptor DRV1; further: 0% is about no effect", "details": "CHO-K1 GPR32 beta-arrestin PathHunter luminescence, 90 min; at 76.9 µM; active compounds read high; zero percent set by DMSO-only wells", "in_short": "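Agonism was scored by beta-Gal fragment complementation (chemiluminescent read, 1 h detection at ambient temperature) reporting beta-arrestin binding to GPR32 in engineered CHO-K1 cells. Compound treatment lasted 90 min at 37 C, normalized to a DMSO basal control.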", "values": [
      {"smiles": "COc1cc(/C=C/c2nc3cc(Cl)ccc3c(=O)n2-c2cccc(C(F)(F)F)c2)cc(OC)c1OC", "activation": "inactive: -2.75%"},
      {"smiles": "COc1cc2ncnc(Nc3ccc(F)c(Cl)c3)c2cc1OCCCN1CCOCC1", "activation": "active: 77.3%"},
      {"smiles": "O=C(COCc1cc(-c2ccco2)on1)Nc1cccc(O)c1", "activation": "inactive: -7.96%"},
      {"smiles": "COc1ccc(Cn2c(SCC(=O)Nc3ccc(OC)cc3)nc3ccccc32)cc1", "activation": "inactive: 15.7%"},
      {"smiles": "COc1cc(OC)c(N(C)C(=O)C2CCCN(c3ncnc4c3nc3n4CCCCC3)C2)cc1Cl", "note": "(stereo not drawn)", "activation": "inactive: -13.9%"},
      {"smiles": "Cc1ccc(-c2nc3c(cnn3-c3ccccc3)c(=O)n2-c2cccc(Cl)c2)cc1", "activation": "inactive: -4.08%"},
      {"smiles": "CN(C)S(=O)(=O)c1ccc2c(c1)N(CC(=O)N1CCN(c3cccc(Cl)c3)CC1)CCS2", "activation": "inactive: -18.3%"},
      {"smiles": "Cn1c(=O)c(=O)n(C)c2cc(S(=O)(=O)CCC(=O)Nc3cccc(C(F)(F)F)c3)ccc21", "activation": "inactive: -14.8%"},
      {"smiles": "CC1CCCN(Cc2c(O)ccc3c(=O)c(Oc4ccc(C(C)(C)C)cc4)c(C(F)(F)F)oc23)C1", "note": "(stereo not drawn)", "activation": "active: 64.7%"},
      {"smiles": "COc1cc(NC(=O)Nc2nnc(N3CCCCCC3)s2)cc(OC)c1", "activation": "inactive: 4.6%"},
      {"smiles": "Cc1ccc(Cc2cnc(NC(=O)C3Cc4ccc(C)cc4C(=O)O3)s2)cc1", "note": "(stereo not drawn)", "activation": "inactive: -4.17%"},
      {"smiles": "COc1ccc(C(CNC(=O)c2cccc([N+](=O)[O-])c2)N2CCOCC2)cc1", "note": "(stereo not drawn)", "activation": "inactive: -13.4%"},
      {"smiles": "COc1ccc(CCNc2nc(-c3ccc(F)cc3)cc(C(F)(F)F)n2)cc1OC", "activation": "inactive: 14%"},
      {"smiles": "COC(=O)c1cnn(-c2ccc(C(=O)Nc3ccc(OC(F)(F)F)cc3)cc2)c1N", "activation": "inactive: -6.89%"},
      {"smiles": "CCc1ccc(NC(=O)CN2CCSc3ccc(S(=O)(=O)N4CCCC4)cc32)cc1", "activation": "inactive: -2.13%"},
      {"smiles": "COc1ccc(/C=C/C(=O)c2ccc(OC)cc2OC)cc1", "activation": "inactive: -13.6%"},
      {"smiles": "CC(NC(=O)c1c2c(nc3ccccc13)C(=O)N(C1CCCCC1)C2)c1ccccc1", "note": "(stereo not drawn)", "activation": "inactive: -21.9%"},
      {"smiles": "CC(C(=O)O)c1ccc(C(=O)c2cccs2)cc1", "note": "(stereo not drawn)", "activation": "inactive: 2.93%"},
      {"smiles": "CCOc1ccc(S(=O)(=O)c2cn(C)c3ccccc3c2=O)cc1", "activation": "inactive: 14.7%"},
      {"smiles": "Cc1ccc(NC(=O)CN2C(=O)CCn3nc(-c4cccn4C)cc32)c(Cl)c1", "activation": "inactive: -6.03%"},
      {"smiles": "CCN(C(=O)c1cccn(Cc2ccccc2C)c1=O)c1ccccc1", "activation": "inactive: -13.3%"},
      {"smiles": "CN(C)c1ccc(NC(=O)CN2C(=O)c3ccccc3Sc3ccc(C(=O)N4CCCC4)cc32)cc1", "activation": "inactive: -24.8%"},
      {"smiles": "CCOC(=O)C1CCN(C(=O)Cn2ncc3c4ccccc4n(Cc4ccccc4F)c3c2=O)CC1", "activation": "inactive: -8%"},
      {"smiles": "Cc1cccc(N2CCN(CCCNC(=O)c3sc4ncccc4c3-n3cccc3)CC2C)c1", "note": "(stereo not drawn)", "activation": "inactive: -20.2%"},
      {"smiles": "O=C(Cn1c(-c2cccs2)cc2cc(F)ccc21)NCCCN1CCN(c2ccccc2F)CC1", "activation": "inactive: 9.53%"},
      {"smiles": "Cc1nn(CCCC(=O)NCc2cccc(Cl)c2)c(=O)c2c1sc1ccccc12", "activation": "inactive: -18.1%"},
      {"smiles": "Cc1nnc(NC(=O)CSc2nnc3c(n2)[nH]c2ccccc23)s1", "activation": "inactive: -26.7%"},
      {"smiles": "O=c1n(Cc2ccc(F)cc2)nc2n1-c1cc(Cl)ccc1OC2", "activation": "inactive: 18%"},
      {"smiles": "Cc1ccc(F)cc1NC(=O)c1ccc(Cn2nc(N3CCN(c4ccccc4)CC3)ccc2=O)o1", "activation": "inactive: -18%"},
      {"smiles": "Cc1nc2ccn(Cc3cccnc3)c(=O)c2cc1C(=O)NCc1ccc(Cl)cc1", "activation": "inactive: -7.99%"},
      {"smiles": "COc1ccccc1CNC(=O)CCCn1nc(C)c2c(C)n(-c3ccc(C)cc3)nc2c1=O", "activation": "inactive: -8.7%"},
      {"smiles": "COc1cc(C(=O)Nc2ccc(Cl)c(-c3nc4ncccc4o3)c2)cc(OC)c1OC", "activation": "inactive: 4.39%"},
      {"smiles": "CCOc1cccc(CC(=O)N2CCc3c([nH]c4ccccc34)C2c2ccc(C)cc2)c1OCC", "note": "(stereo not drawn)", "activation": "inactive: -34.4%"},
      {"smiles": "Cc1ccc(C)c(-c2nn(CC(=O)Nc3cc(F)ccc3F)c(=O)c3c2CCCC3)c1", "activation": "inactive: -4.48%"},
      {"smiles": "CC(CNC(=O)c1ccc(CSc2nc3ccncc3n2Cc2cccc(F)c2)cc1)c1ccccc1", "note": "(stereo not drawn)", "activation": "inactive: -7.67%"},
      {"smiles": "COc1ccc(C(=O)Nc2ccc3c(c2)N(C2CCCC2)C(=O)c2ccccc2S3)cc1OC", "activation": "inactive: -7.05%"},
      {"smiles": "Cc1ccc2onc(CC(=O)Nc3cc(F)ccc3F)c2c1", "activation": "inactive: -11.2%"},
      {"smiles": "Cc1ccc(-c2cc(C(F)(F)F)n3nc(C(=O)Nc4sc5c(c4C#N)CCC(C)C5)cc3n2)cc1", "note": "(stereo not drawn)", "activation": "inactive: 7.14%"},
      {"smiles": "O=C(CSc1nnc2scc(-c3ccc(Cl)cc3)n12)Nc1ccccc1F", "activation": "inactive: -11.6%"},
      {"smiles": "COC(=O)c1c(SC)nc2ccccc2c1OCc1ccc(C)cc1C", "activation": "inactive: -12.9%"},
      {"smiles": "CC(=O)c1ccc(N2CCN(S(=O)(=O)c3cc(-c4onc(C)c4C)ccc3C)CC2)cc1", "activation": "inactive: -1.56%"},
      {"smiles": "Cc1cccc2c1-c1sc(C(=O)N3CCN(c4ccc(F)cc4)CC3)cc1CO2", "activation": "inactive: -3.6%"},
      {"smiles": "Cc1ccccc1CNC(=O)CCCn1c(=O)c2cccn2c2ccccc21", "activation": "inactive: -21.4%"},
      {"smiles": "O=C(Cn1cc(S(=O)(=O)N2CCN(c3ccccc3F)CC2)c2ccccc2c1=O)Nc1cccc(C(F)(F)F)c1", "activation": "inactive: 13.4%"},
      {"smiles": "O=C(NCCc1ccccc1)C(=O)NCC(c1cccnc1)N1CCN(c2ccccc2)CC1", "note": "(stereo not drawn)", "activation": "inactive: -0.433%"},
      {"smiles": "COCCNC(=O)CN1C(=O)COc2ccc(S(=O)(=O)N3CCOCC3)cc21", "activation": "inactive: 1.58%"},
      {"smiles": "C=Cc1ccc(CSc2nc(-c3ccccc3C)nc3c2Cc2c(CO)cnc(C)c2O3)cc1", "activation": "inactive: 9.82%"},
      {"smiles": "CCC1CCCCN1S(=O)(=O)c1ccc2c(c1)CCCN2C(C)=O", "note": "(stereo not drawn)", "activation": "inactive: -20%"},
      {"smiles": "CCn1cc(C(=O)OCC(=O)Nc2cccc(Cl)c2C)c(=O)c2ccc(C)nc21", "activation": "inactive: -3.31%"},
      {"smiles": "CCc1ccccc1N(C)C(=O)Nc1cn(CC(C)C)c(=O)c2ccccc12", "activation": "inactive: -3.85%"},
      {"smiles": "CCOc1ccc(CNC(=O)CCn2c(=O)c3cccn3c3cccnc32)cc1", "activation": "inactive: -2.73%"},
      {"smiles": "CCOc1ccc(N2CC(NC(=O)c3ccc(S(=O)(=O)N4CCOCC4)cc3)CC2=O)cc1", "note": "(stereo not drawn)", "activation": "inactive: 7.9%"},
      {"smiles": "COC(=O)C(N)Cc1ccc(Cl)cc1", "note": "(stereo not drawn)", "activation": "inactive: 0.304%"},
      {"smiles": "N#Cc1ccc(NC(=O)COCc2cc(-c3ccc4c(c3)OCO4)on2)cc1", "activation": "inactive: 15.8%"},
      {"smiles": "Cc1cc(N2CCN(C)CC2)nc2ccc(NC(=O)Nc3ccc(Cl)cc3)cc12", "activation": "active: 118%"},
      {"smiles": "COC(=O)c1scc(-c2ccc(C)cc2)c1S(=O)(=O)Nc1ccc(OC(F)(F)F)cc1", "activation": "inactive: -10.1%"},
      {"smiles": "O=C(CSc1nc(=O)n(Cc2ccco2)c2c1CCC2)NCc1ccccc1Cl", "activation": "inactive: -24.8%"},
      {"smiles": "Cc1cc(C)cc(NC(=O)CN2C(=O)CSc3ccc(S(=O)(=O)N4CCCC4)cc32)c1", "activation": "inactive: -25.6%"},
      {"smiles": "CCOc1ccc(NC(=O)Cn2c(=O)n(Cc3ccccc3)c(=O)c3sc4ccccc4c32)cc1", "activation": "inactive: -3.94%"},
      {"smiles": "Cc1nn(CC(=O)N2CCN(c3ccccc3)CC2)c(=O)c2cc3cc(F)ccc3n12", "activation": "inactive: 18.7%"},
      {"smiles": "CC1=C(c2ccc(C(C)C)cc2)S(=O)(=O)N=C1N1CCC(C(=O)NCc2ccco2)CC1", "activation": "inactive: 26.5%"},
      {"smiles": "CCOC(=O)c1c(NC(=O)CSc2cn(CCNC(=O)c3ccccc3OC)c3ccccc23)sc2c1CCCC2", "activation": "inactive: -2.29%"},
      {"smiles": "O=C(NCC1CCN(Cc2cccc(F)c2)CC1)c1cc2ccc3cccnc3c2[nH]1", "activation": "inactive: 37.4%"},
      {"smiles": "CCOc1ccc(NC(=O)c2c(NC(=O)c3cccc(C)c3)sc3c2CCC3)cc1", "activation": "inactive: 2.82%"},
      {"smiles": "Cc1ccc(CNC(=O)Cn2c(=O)cc(-c3ccccc3)c3c(C)nn(C)c32)cc1", "activation": "inactive: -8.07%"},
      {"smiles": "COc1ccccc1N1CCN(S(=O)(=O)CCNC(=O)COc2ccc(F)cc2)CC1", "activation": "inactive: -3.86%"},
      {"smiles": "COc1ccc(CCNc2ncnc3c2c(-c2ccccc2)cn3-c2cccc(Cl)c2)cc1OC", "activation": "inactive: -38.5%"},
      {"smiles": "CCc1ccc(NC(=O)CC2C(=O)N(c3ccc(OC)cc3)C(=O)N2Cc2ccc(OC)cc2)cc1", "note": "(stereo not drawn)", "activation": "inactive: -27%"},
      {"smiles": "Cc1c(C(=O)NCCc2ccccc2)cccc1-n1cnc2cccnc21", "activation": "inactive: -8.9%"},
      {"smiles": "CCn1c(=O)c2sccc2n2c(CCCC(=O)N3CCN(c4cc(C)ccc4C)CC3)nnc12", "activation": "inactive: -2.3%"},
      {"smiles": "Cc1cc(=O)n(Cc2ccc(F)cc2Cl)c2c1c(C)nn2-c1ccccc1", "activation": "inactive: -10.8%"},
      {"smiles": "COc1ccccc1CNC(=O)C1CCN(S(=O)(=O)c2c(C)noc2/C=C/c2cccs2)CC1", "activation": "inactive: -38.2%"},
      {"smiles": "Cc1ccn2c(=O)c(C(=O)NCCc3ccc(S(N)(=O)=O)cc3)c(O)nc2c1", "activation": "inactive: 1.17%"},
      {"smiles": "CS(=O)(=O)NCCc1csc2nc(-c3ccccc3)nn12", "activation": "inactive: -15%"},
      {"smiles": "COc1ccc(S(=O)(=O)NC2(C(F)(F)F)NC(=O)N(CCc3ccc(OC)c(OC)c3)C2=O)cc1", "note": "(stereo not drawn)", "activation": "inactive: 23%"},
      {"smiles": "Cc1ccc(NCc2ccccc2-c2nnc(-c3ccccc3Cl)o2)cc1Cl", "activation": "inactive: -8.54%"},
      {"smiles": "COc1ccc(N2C(=O)CSC23C(=O)N(CC(=O)NCc2ccccc2)c2ccccc23)cc1", "note": "(stereo not drawn)", "activation": "inactive: -9.98%"},
      {"smiles": "Cc1cc(Nc2ccccc2Cl)n2nc(-c3ccco3)nc2n1", "activation": "inactive: 11.5%"},
      {"smiles": "COc1ccc(NC(=O)NCc2cccn2Cc2ccc(F)cc2)cc1OC", "activation": "inactive: 29.7%"},
      {"smiles": "COc1ccc(OC)c(NC(=O)c2c(NCc3ccc(C)o3)sc3c2CCCCC3)c1", "activation": "inactive: -19.2%"},
      {"smiles": "COc1cccc(NC(=O)N(Cc2cn(C)c3ccccc23)C2CCCCC2)c1", "activation": "inactive: -41.2%"},
      {"smiles": "COc1cc(C2C(C(=O)OC(C)C)=C(C)N=C3SCCC(=O)N32)ccc1OCc1ccccc1", "note": "(stereo not drawn)", "activation": "inactive: -0.825%"},
      {"smiles": "O=c1oc2ccccc2cc1-c1nc(-c2cccc(Cl)c2)cs1", "activation": "inactive: 9.79%"}
    ]}
  ]
}
